Measurements from patent US10765696B2, “Compositions of and methods of treatment with zwitterionic polysaccharide” (City of Hope, priority 2015, dated 2020).

Tested on: T cells
Test: Flow cytometry of T cells (phenotype, tetramer, intracellular cytokines) from treated HSV infected mice
Details: six oral doses of PSA, ACV from day 4, spleen day 6 post-infection

“Bacteroides fragilis (B. fragilis) capsular polysaccharide A (PSA)” was tested, and the “spleen CD8 T cells virus specific (H-2b HSV gB498 tetramer staining)” value was “about 12%”.
